{"source": "PubChem BioAssay AID686978", "about": "(National Center for Advancing Translational Sciences (NCATS), 2013)", "note": "Values joined by “and” are separate entries in the source; they are usually repeats but may differ in a detail not shown here. Equal values may be shown once. Screen size: about 420,000 compounds; about 64,000 (15%) were called active. Inconclusive results, whose numbers are uncertain, are shown with a selection of clear calls. Calls come from the whole dose curve; as a rule, active = well fitted inhibition curve with a large enough effect; inconclusive = small, poorly fitted or top-dose-only effect; inactive = flat fitted curve, though single readings scatter. A potency beside an inconclusive call is a rough fit, not a confirmed value. % is set by controls: 0 for no effect and ±100 for the full control effect; potency is the fitted concentration of half-maximal effect; tags give direction and shape of the fitted curve."}
{"experiment": "qHTS for Inhibitors of human tyrosyl-DNA phosphodiesterase 1 (TDP1): qHTS in cells in absence of CPT; note: nearly all actives have a fitted effect of over 55% in size", "conditions": "DT40 Tdp1-/- hTDP1 cells, no CPT, ATP luminescence, 48 h; activity change, negative = growth inhibition: at 46.2 µM (top of the series) unless noted", "method_in_brief": "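Stably hTDP1-transfected Tdp1-null chicken DT40 cells were treated with library compounds minus camptothecin and grown for at least 48 hr at 37 °C, after which cellular ATP was quantified by luminescence.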"}
{"smiles": "CC1CCCC(C)N1C(=O)CSc1nnc(COc2cccc3cccnc23)o1", "note": "(stereo not given)", "Potency": "inconclusive: 20.6 µM [inhibitor, single point]"}
{"smiles": "CCn1cc(SCC(=O)NCc2ccc3c(c2)OCO3)c2ccccc21", "Potency": "inconclusive: 23.1 µM [inhibitor, single point]"}
{"smiles": "N#Cc1ccc(C(=O)Nc2cc(-c3ccc(F)cc3)nn2-c2ccccc2)cc1", "Potency": "inconclusive: 18.4 µM [inhibitor, single point]"}
{"smiles": "NC(=O)[C@H]1CC2(CC(c3cccc(NC(=O)CC(c4ccccc4)c4ccccc4)c3)=NO2)CN1C(=O)c1ccccc1C(=O)c1ccccc1", "note": "(stereo not given in full)", "Potency": "inconclusive: 18.4 µM [inhibitor, single point]"}
{"smiles": "CN(C)CCCNC(=O)c1ccc(Cl)c(S(=O)(=O)N(C)c2ccccc2)c1", "Potency": "inactive"}
{"smiles": "CCSc1nc(CC)c2c(c1C#N)CCCC2", "Potency": "inconclusive: 23.1 µM [inhibitor, single point]"}
{"smiles": "CCOC(=O)c1ccc(NC(=O)N2CCN(c3ccccc3OC)CC2)cc1", "Potency": "inconclusive: 29.1 µM [inhibitor, single point]"}
{"smiles": "Cc1ccnc(N2CCN(C(=O)CSc3nc4ccccc4nc3N3CCCCC3)CC2)c1", "Potency": "inconclusive: 16.4 µM [inhibitor, single point]"}
{"smiles": "CC(=O)c1ccc(NC(=O)COCc2cc(-c3ccco3)on2)cc1", "Potency": "inconclusive: 29.1 µM [inhibitor, single point]"}
{"smiles": "Cc1ccc(-c2noc(-c3ccccc3C(=O)N3CCN(C)CC3)n2)cc1", "Potency": "inconclusive: 16.4 µM [inhibitor, single point]"}
{"smiles": "O=C(/C=C/c1ccccc1)NC(=O)c1ccccc1O", "Potency": "inconclusive: 6.51 µM [inhibitor, partial curve]"}
{"smiles": "O=c1c2ccccc2nc(COc2ccccc2)n1/N=C/c1cn[nH]c1-c1ccccc1", "Potency": "active: 16.4 µM"}
{"smiles": "Cc1ccccc1OCc1nnc(SCc2cc(=O)c3cccc(F)c3[nH]2)n1C", "Potency": "inconclusive: 29.1 µM [inhibitor, single point]"}
{"smiles": "CN(Cc1ccc(Cl)cc1Cl)C(=O)C1CC(=O)N(Cc2ccco2)C1", "note": "(stereo not given)", "Potency": "inconclusive: 29.1 µM [inhibitor, single point]"}
{"smiles": "Cc1cccc(C)c1NC(=O)C(C1CC1)n1c(=O)c(-c2cc3ccccc3[nH]2)nc2ccccc21", "note": "(stereo not given)", "Potency": "inconclusive: 29.1 µM [inhibitor, single point]"}
{"smiles": "O=C(NCc1ccc2c(c1)OCO2)C1CCCN(S(=O)(=O)c2cccc3nonc23)C1", "note": "(stereo not given)", "Potency": "inconclusive: 23.1 µM [inhibitor, single point]"}
{"smiles": "COc1ccccc1-c1n[nH]c2c1[C@H](C)CC[C@H]2C(C)C", "Potency": "inconclusive: 29.1 µM [inhibitor, single point]"}
{"smiles": "CCOC(=O)C[C@H]1c2ccc(C(F)(F)F)cc2S(=O)(=O)N1c1cccc(OC)c1", "Potency": "inconclusive: 8.91 µM [inhibitor, partial curve] and inconclusive: 29.1 µM [inhibitor, single point]"}
{"smiles": "Cc1cccc(C)c1NC(=S)N/N=C/c1ccc(OCCC(C)C)cc1", "Potency": "active: 7.31 µM"}
{"smiles": "CCCCc1nc(Cl)c(C#N)c2c1CCC2", "activity change, negative = growth inhibition": "inconclusive: -36.6% [inhibitor]"}
{"smiles": "COc1ccc2c(c1)c1c(c(=O)n(-c3cccc(Cl)c3)c(=O)n1CC(=O)N1CCCC1)n2C", "Potency": "inconclusive: 16.4 µM [inhibitor, partial curve, poor fit]"}
{"smiles": "O=C(Nc1ccc(Cl)cc1)N1CCN(c2ccccc2)CC1", "Potency": "inconclusive: 29.1 µM [inhibitor, single point]"}
{"smiles": "COc1ccc(/C=N/Nc2c(Cl)cc(Cl)cc2Cl)cc1CN1CCOCC1", "Potency": "active: 14.6 µM"}
{"smiles": "C[C@]12c3[nH]c4cc(-c5ccco5)ccc4c3CCN1C(=O)[C@@H](CC(=O)NCC13CC4CC(CC(C4)C1)C3)C[C@@H]2C(=O)N1CCCCC1", "Potency": "active: 6.51 µM"}
{"smiles": "Cc1ccc2oc3c(c(=O)c2c1)C(c1cccc(O)c1)N(c1ccccn1)C3=O", "note": "(stereo not given)", "Potency": "inconclusive: 29.1 µM [inhibitor, single point]"}
{"smiles": "CC(c1ccccc1)n1cc(C(=O)NCC2COc3ccccc3O2)nn1", "note": "(stereo not given)", "Potency": "inconclusive: 18.4 µM [inhibitor, single point]"}
{"smiles": "Cc1ccc(-c2cc(C(=O)Oc3ccccc3)c3cc(C)ccc3n2)cc1", "Potency": "inactive"}
{"smiles": "Fc1cccc(CCN2CCNC[C@@H]2c2ccccc2)c1", "Potency": "inconclusive: 20.6 µM [inhibitor, partial curve]"}
{"smiles": "O=C(NCCN1CCCC1)c1ccc2c(c1)N(Cc1ccc(F)cc1)C(=O)c1ccccc1S2=O", "note": "(stereo not given)", "Potency": "inconclusive: 23.1 µM [inhibitor, single point]"}
{"smiles": "CCCCCNC(=O)C1CC(=O)OC12CCCCC2", "note": "(stereo not given)", "Potency": "inactive"}
{"smiles": "Cc1noc(C)c1S(=O)(=O)Nc1cc(C(F)(F)F)ccc1N1CCOCC1", "Potency": "inconclusive: 29.1 µM [inhibitor, single point]"}
{"smiles": "O=C(Nc1cccnc1)c1sc(Nc2ccccc2)nc1-c1ccccc1", "Potency": "inconclusive: 29.1 µM [inhibitor, single point]"}
{"smiles": "Cc1cc(C)n(-c2nc(C)nc(NCc3ccccc3)n2)n1", "Potency": "active: 18.4 µM"}
{"smiles": "Cc1cc2occ(CC(=O)N(C)CC(=O)Nc3cccc(F)c3)c2cc1C", "Potency": "inactive"}
{"smiles": "NC(=O)CC(NC(=O)Cc1cccc2ccccc12)c1ccc(N2CCN(c3ccccc3)CC2)c([N+](=O)[O-])c1", "note": "(stereo not given)", "Potency": "inactive"}
{"smiles": "Cc1ccc(C(=O)/C=C/c2cn(CN3CCN(C)CC3)c3ccccc23)cc1", "activity change, negative = growth inhibition": "inconclusive: -30.9% [inhibitor]"}
{"smiles": "COc1ccc(NC(=O)O[C@@H](C)[C@@H]2CN3CCc4c([nH]c5ccc(-c6ccc(OC)cc6)cc45)[C@@H]3C[C@@H]2N(C)C(=O)Nc2ccc(OC)cc2)cc1", "Potency": "active: 13 µM"}
{"smiles": "Cn1nc(C(F)(F)F)c(-c2ccc(Br)cc2)c1NC(=O)Nc1ccc(F)cc1F", "Potency": "inconclusive: 20.6 µM [inhibitor, single point]"}
{"smiles": "O=C(CNC(=O)C(c1ccccc1)c1ccccc1)OCC(=O)c1cccs1", "Potency": "active: 1.46 µM"}
{"smiles": "COC1Cc2ccccc2N(C(N)=O)c2ccccc21", "note": "(stereo not given)", "Potency": "inactive"}
{"smiles": "Cc1ccc2c(c1)-c1c(cnn1CC(=O)NC(C)CCc1ccco1)CO2", "note": "(stereo not given)", "Potency": "inconclusive: 29.1 µM [inhibitor, single point]"}
{"smiles": "Cc1cc(NC(=O)C2CCN(S(=O)(=O)c3ccc4[nH]c(=O)oc4c3)CC2)ccc1Br", "Potency": "inconclusive: 25.9 µM [inhibitor, single point]"}
{"smiles": "COc1cccc(-c2ccc(=O)n(CC(=O)Nc3cc4c(cc3NC(C)=O)OCCO4)n2)c1", "activity change, negative = growth inhibition": "inconclusive: -30.8% [inhibitor]"}
{"smiles": "CC(C)(C)c1ccc(-n2ncc3c2CCCC3NC(=O)CCCn2cncn2)cc1", "note": "(stereo not given)", "Potency": "inconclusive: 20.6 µM [inhibitor, partial curve, poor fit]"}
{"smiles": "COc1ccc(-c2cn3cc(C(=O)NN)ccc3n2)cc1", "Potency": "inconclusive: 29.1 µM [inhibitor, single point]"}
{"smiles": "Cc1nn(C)c(C(=O)N/N=C/c2ccc(C(F)(F)F)cc2)c1[N+](=O)[O-]", "Potency": "inactive"}
{"smiles": "Cc1cccc(NC(=S)N/N=C/c2ccc(Cl)c([N+](=O)[O-])c2)c1", "Potency": "inconclusive: 16.4 µM [inhibitor, partial curve, poor fit]"}
{"smiles": "Cc1ccc(Cn2nnc3c(=O)[nH]c(C4CCN(S(=O)(=O)c5cc(C)ccc5C)CC4)nc32)cc1", "Potency": "active: 23.1 µM"}
{"smiles": "CCOc1ccc(CCNC(=O)COC(=O)c2cc(OC)cc(OC)c2)cc1OCC", "Potency": "inconclusive: 16.4 µM [inhibitor, partial curve]"}
{"smiles": "CCC(C)(C)NC(=O)C(c1cccn1C)N(C(=O)Cn1nnc2ccccc21)c1ccc(OC)cc1OC", "note": "(stereo not given)", "Potency": "inconclusive: 23.1 µM [inhibitor, partial curve]"}
{"smiles": "CC(=NCCc1ccccc1)C1=C(O)CSC1=O", "Potency": "inconclusive: 29.1 µM [inhibitor, single point]"}
{"smiles": "CCc1c(C)nc2ncnn2c1NCCc1ccc(Cl)cc1", "Potency": "active: 9.2 µM"}
{"smiles": "COc1ccc(NC(=S)N2CCCC(CO)C2)c(OC)c1", "note": "(stereo not given)", "Potency": "inactive"}
{"smiles": "COc1cc2oc3ccc(C#Cc4ccc(N)cc4)cc3c(=O)c2cc1OC", "Potency": "inconclusive: 16.4 µM [inhibitor, partial curve]"}
{"smiles": "CCN(CC)C(=O)[C@H]1C[C@H](CC(=O)NCC23CC4CC(CC(C4)C2)C3)C(=O)N2CCc3c([nH]c4cc(CCC(=O)N(C)C)ccc34)[C@]12C", "Potency": "active: 18.4 µM"}
{"smiles": "CCN(CC)c1c([N+](=O)[O-])c(=O)oc2ccccc12", "Potency": "inactive"}
{"smiles": "COc1ccc(-c2cc(=Nc3c(C)n(C)n(-c4ccccc4)c3=O)c3ccccc3o2)cc1", "Potency": "active: 20.6 µM"}
{"smiles": "CCC(C)(C)NC(=O)CN(Cc1cccs1)C(=O)C(=O)Nc1ccc2c(c1)OCCO2", "Potency": "inconclusive: 16.4 µM [inhibitor, single point]"}
{"smiles": "CC(C)[C@H](NC(=O)c1ccc(Cl)c([N+](=O)[O-])c1)C(=O)NCc1ccc(F)cc1", "Potency": "inactive"}
{"smiles": "Cc1c(Cl)cccc1-n1cnc(=O)c2ccccc21", "Potency": "inactive"}
{"smiles": "O=C1[C@@H]2C(Cc3ccc(O)cc3)NC3(C(=O)Nc4ccc(F)cc43)[C@@H]2C(=O)N1c1ccc(F)cc1", "note": "(stereo not given in full)", "Potency": "inactive"}
{"smiles": "CC1Cc2ccccc2N1C(=O)CN1CCN(S(=O)(=O)c2ccc3c(c2)OCCCO3)CC1", "note": "(stereo not given)", "Potency": "inconclusive: 29.1 µM [inhibitor, single point]"}
{"smiles": "CC1=C(C(=O)OCc2ccccc2)C(c2ccccc2OS(=O)(=O)c2ccc([N+](=O)[O-])cc2)NC(=O)N1CCCC(=O)O", "note": "(stereo not given)", "Potency": "inactive"}
{"smiles": "CN(C(=O)COC(=O)c1cc(NS(=O)(=O)c2cc([N+](=O)[O-])ccc2Cl)ccc1O)C1CCCCC1", "Potency": "inactive"}
{"smiles": "COC(=O)c1nc2n(n1)C(c1cc(OC)ccc1OC)C(C(=O)Nc1ccc(C)cc1C)=C(C)N2", "note": "(stereo not given)", "Potency": "inactive"}
